This is one part of the list. These are noisy estimates, calculated here from bound and input reads.
molecular target: T1, Pho4 (S. cerevisiae) (UniProt P07270); experiment: relative binding free energy (BET-seq); higher = weaker binding; conditions: reference: library average
T1 sequence: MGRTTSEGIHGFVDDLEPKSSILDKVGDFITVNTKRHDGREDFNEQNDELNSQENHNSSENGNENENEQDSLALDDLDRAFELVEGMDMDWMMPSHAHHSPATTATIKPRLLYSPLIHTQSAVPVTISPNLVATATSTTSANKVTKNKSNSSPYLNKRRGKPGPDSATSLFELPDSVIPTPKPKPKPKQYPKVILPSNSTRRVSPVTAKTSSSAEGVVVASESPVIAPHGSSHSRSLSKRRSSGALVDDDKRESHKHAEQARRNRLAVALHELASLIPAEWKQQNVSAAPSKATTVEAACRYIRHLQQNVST

| Sequence | relative binding free energy |
| --- | --- |
| CTGTGCACGTGGGGCG | -0.24 kcal/mol |
| TCTGCCACGTGGTTTA | -0.04 kcal/mol |
| TTCGGCACGTGTAGTG | 0.09 kcal/mol |
| TGCTACACGTGTTTAT | 0.12 kcal/mol |
| CTGGGCACGTGTATGA | -0.06 kcal/mol |
| TTTACCACGTGATAGG | 0.15 kcal/mol |
| GATTGCACGTGTTAAT | 0.1 kcal/mol |
| TATGGCACGTGACTGG | 0.05 kcal/mol |
| AAGGACACGTGGGATG | -0.1 kcal/mol |
| GGGCTCACGTGTGCGG | 0.32 kcal/mol |
| GAGGTCACGTGTGTAC | 0.23 kcal/mol |
| TATCTCACGTGGTAGT | 0.2 kcal/mol |
| CGGGACACGTGATATG | 0.17 kcal/mol |
| AATATCACGTGGAGGA | 0.19 kcal/mol |
| GTACCCACGTGTTGGG | -0.03 kcal/mol |
| GATAACACGTGGTGTT | -0.04 kcal/mol |
| CATGTCACGTGGTGGG | 0.03 kcal/mol |
| TAGTTCACGTGATGTA | 0.17 kcal/mol |
| GATTTCACGTGAATGT | 0.27 kcal/mol |
| TTTGGCACGTGTATAG | -0.03 kcal/mol |
| GAGGGCACGTGAGATG | 0.23 kcal/mol |
| TAGGGCACGTGGCTGC | -0.16 kcal/mol |
| GGTCGCACGTGTAAGG | 0.01 kcal/mol |

| Sequence | relative binding free energy |
| --- | --- |
| GTAGACACGTGGGAAG | -0.07 kcal/mol |
| TTCTTCACGTGTGTGT | 0.28 kcal/mol |
| GCAGTCACGTGTTAGG | 0.03 kcal/mol |
| AGATACACGTGAGGTT | 0.42 kcal/mol |
| TGGTACACGTGCGTTT | -0.01 kcal/mol |
| TATTACACGTGTTCAT | -0.05 kcal/mol |
| TATCACACGTGTGGAG | 0.22 kcal/mol |
| GTGTTCACGTGTTAGC | 0.2 kcal/mol |
| TGGCGCACGTGAGGCG | 0.12 kcal/mol |
| GGGCCCACGTGGGCGT | -0.25 kcal/mol |
| GGCAACACGTGTTGGT | 0.02 kcal/mol |
| GGTATCACGTGAGGGC | 0.28 kcal/mol |
| GGAAGCACGTGAGTGG | 0.21 kcal/mol |
| TGATTCACGTGTTGCG | 0.19 kcal/mol |
| TTGGCCACGTGTATTT | -0.02 kcal/mol |
| TTCAGCACGTGGCTGT | -0.07 kcal/mol |
| CGGTTCACGTGGTGAA | -0.02 kcal/mol |
| GTTCACACGTGGTGTT | 0.07 kcal/mol |
| GTCGTCACGTGGTGGT | 0.15 kcal/mol |
| TGTTTCACGTGCTTGG | 0.24 kcal/mol |
| TCAGCCACGTGTGTGG | 0 kcal/mol |
| GGATCCACGTGGATGG | 0.03 kcal/mol |
| AGGGGCACGTGCGGGC | -0.17 kcal/mol |

| Sequence | relative binding free energy |
| --- | --- |
| TAAGTCACGTGTGGCG | 0.02 kcal/mol |
| CGAGTCACGTGGCTGT | 0.01 kcal/mol |
| TAGGCCACGTGGTTGG | -0.1 kcal/mol |
| TTGTACACGTGGCGCG | -0.08 kcal/mol |
| TTATTCACGTGCTGTG | 0.26 kcal/mol |
| AACTGCACGTGTGAGG | 0.15 kcal/mol |
| AGAGTCACGTGCTTTT | 0.04 kcal/mol |
| GTGCGCACGTGTGTCT | -0.07 kcal/mol |
| AGTTTCACGTGTACGG | 0.31 kcal/mol |
| ATAGCCACGTGTTATT | 0 kcal/mol |
| AGGAGCACGTGGGCTT | -0.22 kcal/mol |
| GAGTTCACGTGGGGTA | 0.12 kcal/mol |
| TATAGCACGTGCTTTT | -0.06 kcal/mol |
| ATTGTCACGTGAATAA | 0.33 kcal/mol |
| TTAGTCACGTGCATTG | 0.08 kcal/mol |
| GTGCGCACGTGCAAGG | -0.02 kcal/mol |
| TATGCCACGTGTGGAT | -0.04 kcal/mol |
| TATTTCACGTGTTAAC | 0.26 kcal/mol |
| TGCATCACGTGTGTTA | 0.13 kcal/mol |
| TGAATCACGTGTGGGC | 0.2 kcal/mol |
| TTTTTCACGTGGGTTT | 0.21 kcal/mol |
| AGGCACACGTGGTATG | -0.15 kcal/mol |
| ACGGCCACGTGTGGGA | -0.02 kcal/mol |

| Sequence | relative binding free energy |
| --- | --- |
| AGGGTCACGTGTATGC | 0.12 kcal/mol |
| AGGTACACGTGATGTC | 0.33 kcal/mol |
| AGCGGCACGTGGTTTG | -0.24 kcal/mol |
| TATTGCACGTGAGTGT | 0.15 kcal/mol |
| TGGGGCACGTGAGTGC | 0.05 kcal/mol |
| TGGTTCACGTGCAGGC | 0.23 kcal/mol |
| TATAACACGTGGAGGA | -0.02 kcal/mol |
| GGTAACACGTGTGGGG | 0.16 kcal/mol |
| TTGGGCACGTGAGGCG | 0.09 kcal/mol |
| AGTTGCACGTGCTTTT | 0.06 kcal/mol |
| TGAGTCACGTGTAGTC | 0.22 kcal/mol |
| TGGTGCACGTGTTGCC | -0.07 kcal/mol |
| CTTTACACGTGCGGTT | 0.18 kcal/mol |
| TGGTGCACGTGGAAGG | 0.02 kcal/mol |
| ATTTGCACGTGCTGGA | 0.02 kcal/mol |
| TCATACACGTGGTGGT | -0.14 kcal/mol |
| ATAGGCACGTGCGTTT | -0.23 kcal/mol |
| GACGGCACGTGTTGTT | 0.1 kcal/mol |
| AGGCTCACGTGCGGGT | 0.03 kcal/mol |
| TTTTGCACGTGGTGCT | -0.01 kcal/mol |
| TTGGTCACGTGAATGC | 0.29 kcal/mol |
| GAGAGCACGTGGGGTC | -0.21 kcal/mol |
| ATGGACACGTGGAGGC | -0.07 kcal/mol |

| Sequence | relative binding free energy |
| --- | --- |
| TGATACACGTGATGCT | 0.12 kcal/mol |
| GAGGTCACGTGAGTCT | 0.44 kcal/mol |
| TGAGTCACGTGTATGT | 0.14 kcal/mol |
| ATATGCACGTGTGGCT | 0.09 kcal/mol |
| TCGTACACGTGTGGTG | 0.14 kcal/mol |
| GAATGCACGTGGGTTG | -0.07 kcal/mol |
| AGTATCACGTGATATT | 0.18 kcal/mol |
| CAAGTCACGTGTATGT | 0.25 kcal/mol |
| GGATGCACGTGTAAGA | 0.23 kcal/mol |
| TTTATCACGTGGATTC | 0.24 kcal/mol |
| AGTCACACGTGGGAGT | 0.05 kcal/mol |
| TTATGCACGTGAGTTG | 0.18 kcal/mol |
| AATCTCACGTGCGGGG | 0.22 kcal/mol |
| GGGGTCACGTGAGATA | 0.3 kcal/mol |
| GGTCTCACGTGGTTGT | 0.1 kcal/mol |
| GCTTCCACGTGTGGGA | 0.27 kcal/mol |
| GTTGGCACGTGGTAAA | -0.07 kcal/mol |
| GTCTTCACGTGAAAGG | 0.38 kcal/mol |
| GTGTTCACGTGGAGGG | 0.24 kcal/mol |
| TAAAGCACGTGTATTT | -0.05 kcal/mol |
| ATCGGCACGTGAGGGT | 0.11 kcal/mol |
| GATTGCACGTGCGGTC | 0.08 kcal/mol |
| CTAATCACGTGGGAGT | 0.05 kcal/mol |
